Experimental data taken from ChEMBL document CHEMBL4888484, “Replenishing the malaria drug discovery pipeline: Screening and hit evaluation of the MMV Hit Generation Library 1 (HGL1) against asexual blood stage Plasmodium falciparum ,using a nano luciferase reporter read-out” (2022).
Among all 150,000 compounds or so, about 540 (0.36%) showed an effect of 50% or more. This is one part of the list.

Test system: Plasmodium falciparum
Test: Primary screen in NF54 nanoGlo assay, in single point, at 2uM, 72h; a lower Z score goes with more inhibition
Format: functional, Erythrocyte
Details: timepoint 72 hour

CCOc1cc(N2CC3(CC(OC)(OC)C3)[C@@H]2C(C)C)ncn1 and COc1cc(C(=O)N(C)[C@H]2CCCN(CCCc3ccccc3)C2)ccc1C are the same in “% Inhibition” value: -10% for the first, -10% for the second.

Going from CNC(=O)CCC(C)(C)NC(=O)c1ccc(CCC(C)(C)O)cc1 to C[C@H](NC(=O)c1cc(O)ccc1C(F)(F)F)C(=O)N(C)C, the “% Inhibition” value rises from -13% to -7%.

First: COc1ccc(NC(=O)[C@H](C2CCCC2)N2CCN(C(=O)C(C)(C)C)CC2)cc1
Second: CN1CCN(c2ncc3c(=O)n(C4CCCC4)ccc3n2)CC1
The “% Inhibition” value of the first is higher: 1% for the first, -16% for the second.

Compared with CCCc1noc(CN2N=C(C(=O)N3CCC(C)CC3)S(=O)(=O)c3ccc(C)cc32)n1, CCc1ccc(Cn2nc(CC(N)=O)nc2CN2CCCN(C)CC2)cc1 is lower in “% Inhibition” value: 2% for the first, -7% for the second.

Compared with COc1nc2c(cc1CNC(=O)CCc1ccco1)C(=O)N(C1CCCC1)C2, CCCNC(=O)CCc1nc(N2CCCCC2)c2c(CC)noc2n1 is lower in “% Inhibition” value: -2% for the first, -12% for the second.

First: Cc1nc2c(n1CCO)CC[C@H](NC(=O)c1cnc3n1CCCC3)C2
Second: CCOc1ccccc1CN1CCC(F)(C(=O)NC2CC2)CC1
The “% Inhibition” value of the first is lower: -11% for the first, -3% for the second.

Compared with O=C1c2nccnc2C(=O)N1c1cccc2ccccc12, O=C1CNC(=O)N1c1cccc(NS(=O)(=O)c2cccc(Cl)c2)c1 is higher in “% Inhibition” value: -12% for the first, -4% for the second.

Compared with Clc1ccc(NC[C@H]2CCCN2)c(Cl)c1, O=C(Nc1ccc(Cl)c(Cl)c1)OCc1cccs1 is lower in “% Inhibition” value: 1% for the first, -5% for the second.

Compared with Cc1nc(O)nc(C)c1CCC(=O)N1CC[C@H]1c1ccc(F)cc1, O=c1[nH]c2cccnc2n1[C@@H]1CCN(Cc2ccc(C(F)(F)F)cc2)C1 is lower in “% Inhibition” value: -1% for the first, -16% for the second.

Compared with CCN(CC)Cc1cn2ccccc2c1C#N, CN(Cc1nc2c(F)cccc2[nH]1)C[C@H](O)COCc1ccccc1 is higher in “% Inhibition” value: -12% for the first, -3% for the second.

Going from O=c1scc(C(F)(F)F)n1Cc1sc2ccccc2c1Cl to Cc1cccc2cc(-c3noc(C(C)C)n3)c(NCc3ccc(N(C)C)cc3)nc12, the “% Inhibition” value falls from 2% to -13%.

First: O=C1CCC(N2C(=O)C3CCCC3C2=O)C(=O)N1 (stereo not drawn)
Second: c1cc2c(cc1CNc1nc(N3CCOCC3)ns1)OCCO2
The “% Inhibition” value of the first is lower: -12% for the first, 1% for the second.

First: CCOc1cc(N2CC3(CC(OC)(OC)C3)[C@@H]2C(C)C)ncn1
Second: COc1cc(C(=O)N(C)[C@H]2CCCN(CCCc3ccccc3)C2)ccc1C
The Z score of the first is lower: 1.23 for the first, 1.35 for the second.

First: CNC(=O)CCC(C)(C)NC(=O)c1ccc(CCC(C)(C)O)cc1
Second: C[C@H](NC(=O)c1cc(O)ccc1C(F)(F)F)C(=O)N(C)C
The Z score of the first is higher: 1.88 for the first, 0.57 for the second.

Compared with COc1ccc(NC(=O)[C@H](C2CCCC2)N2CCN(C(=O)C(C)(C)C)CC2)cc1, CN1CCN(c2ncc3c(=O)n(C4CCCC4)ccc3n2)CC1 is higher in Z score: -0.21 for the first, 1.82 for the second.

Going from CCCc1noc(CN2N=C(C(=O)N3CCC(C)CC3)S(=O)(=O)c3ccc(C)cc32)n1 to CCc1ccc(Cn2nc(CC(N)=O)nc2CN2CCCN(C)CC2)cc1, the Z score rises from -0.26 to 1.3.

Compared with COc1nc2c(cc1CNC(=O)CCc1ccco1)C(=O)N(C1CCCC1)C2, CCCNC(=O)CCc1nc(N2CCCCC2)c2c(CC)noc2n1 is higher in Z score: 0.26 for the first, 1.91 for the second.

Compared with Cc1nc2c(n1CCO)CC[C@H](NC(=O)c1cnc3n1CCCC3)C2, CCOc1ccccc1CN1CCC(F)(C(=O)NC2CC2)CC1 is lower in Z score: 1.17 for the first, 0.38 for the second.

First: O=C1c2nccnc2C(=O)N1c1cccc2ccccc12
Second: O=C1CNC(=O)N1c1cccc(NS(=O)(=O)c2cccc(Cl)c2)c1
The Z score of the first is higher: 1.82 for the first, 0.53 for the second.

Compared with Clc1ccc(NC[C@H]2CCCN2)c(Cl)c1, O=C(Nc1ccc(Cl)c(Cl)c1)OCc1cccs1 is higher in Z score: -0.1 for the first, 0.95 for the second.

Going from Cc1nc(O)nc(C)c1CCC(=O)N1CC[C@H]1c1ccc(F)cc1 to O=c1[nH]c2cccnc2n1[C@@H]1CCN(Cc2ccc(C(F)(F)F)cc2)C1, the Z score rises from 0.23 to 2.12.

Going from CCN(CC)Cc1cn2ccccc2c1C#N to CN(Cc1nc2c(F)cccc2[nH]1)C[C@H](O)COCc1ccccc1, the Z score falls from 1.72 to 0.46.

Going from O=c1scc(C(F)(F)F)n1Cc1sc2ccccc2c1Cl to Cc1cccc2cc(-c3noc(C(C)C)n3)c(NCc3ccc(N(C)C)cc3)nc12, the Z score rises from -0.34 to 1.94.

Compared with O=C1CCC(N2C(=O)C3CCCC3C2=O)C(=O)N1 (stereo not drawn), c1cc2c(cc1CNc1nc(N3CCOCC3)ns1)OCCO2 is lower in Z score: 1.48 for the first, -0.17 for the second.
